# Results: the supplement of paper PMC8728848
# The other results are listed elsewhere or left out.
# B1: SpnanA (Streptococcus pneumoniae), P62575 (protein)
# chain: MVIEKEDVETNASNGQRVDLSSELDKLKKLENATVHMEFKPDAKAPAFYNLFSVSSATKKDEYFTMAVYNNTATLEGRGSDGKQFYNNYNDAPLKVKPGQWNSVTFTVEKPTAELPKGRVRLYVNGVLSRTSLRSGNFIKDMPDVTHVQIGATKRANNTVWGSNLQIRNLTVYNRALTPEEVQKRS
# What was measured:
# Assay in all cases: glycan array binding signal (z-score within array); higher = stronger binding
# Details in all cases: glycan notation: IUPAC condensed, linker removed
# [1] = target: Neu5Ac(a2-6)Gal(b1-4)GlcNAc(b1-2)Man(a1-6)[GlcNAc(b1-2)Man(a1-3)]Man(b1-4)GlcNAc(b1-4)GlcNAc
# Outline: (§1)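 Negative Z-scores can be read as non-binding. The Z-score is calculated within each array and then averaged across arrays of one protein sequence at different concentrations or buffers and across linkers. Arrays, 3228 in all, were curated from the Consortium for Functional Glycomics database and kept only where the protein sequence was available.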
# [2] = target: Neu5Ac(a2-6)Gal(b1-4)GlcNAc(b1-2)Man(a1-6)[Man(a1-3)]Man(b1-4)GlcNAc(b1-4)GlcNAc
# Outline: as §1
# [3] = target: Neu5Ac(a2-6)Gal(b1-4)GlcNAc(b1-3)Gal(b1-3)GlcNAc
# Outline: as §1
# [4] = target: Neu5Ac(a2-6)Gal(b1-4)GlcNAc(b1-3)Gal(b1-4)GlcNAc
# Outline: as §1
# [5] = target: Neu5Ac(a2-6)Gal(b1-4)GlcNAc(b1-3)Gal(b1-4)GlcNAc(b1-3)Gal(b1-4)GlcNAc
# Outline: as §1
# [6] = target: Neu5Ac(a2-6)Gal(b1-4)GlcNAc(b1-3)Gal(b1-4)[Fuc(a1-3)]GlcNAc(b1-3)Gal(b1-4)[Fuc(a1-3)]GlcNAc
# Outline: as §1
# [7] = target: Neu5Ac(a2-6)Gal(b1-4)GlcNAc(b1-3)GalNAc
# Outline: as §1
# [8] = target: Neu5Ac(a2-6)Gal(b1-4)GlcNAc(b1-3)[Neu5Ac(a2-6)Gal(b1-4)GlcNAc(b1-6)]GalNAc
# Outline: as §1
# [9] = target: Neu5Ac(a2-6)Gal(b1-4)GlcNAc(b1-6)GalNAc
# Outline: as §1
# [10] = target: Neu5Ac(a2-6)Gal(b1-4)GlcNAc(b1-6)[Gal(b1-3)GlcNAc(b1-3)]Gal(b1-4)Glc
# Outline: as §1
# [11] = target: Neu5Ac(a2-6)Gal(b1-4)GlcNAc6S
# Outline: as §1
# Neu5Ac(a2-6)GalNAc = target: Neu5Ac(a2-6)GalNAc
# Outline: as §1
# [12] = target: Neu5Ac(a2-6)GalNAc(b1-4)GlcNAc
# Outline: as §1
# [13] = target: Neu5Ac(a2-6)GalNAc(b1-4)GlcNAc6S
# Outline: as §1
# [14] = target: Neu5Ac(a2-6)GlcNAc(b1-4)GlcNAc
# Outline: as §1
# [15] = target: Neu5Ac(a2-6)GlcNAc(b1-4)GlcNAc(b1-4)GlcNAc
# Outline: as §1
# Neu5Ac(a2-8)Neu5Ac = target: Neu5Ac(a2-8)Neu5Ac
# Outline: as §1
# [16] = target: Neu5Ac(a2-8)Neu5Ac(a2-3)Gal(b1-3)GalNAc(b1-4)[Neu5Ac(a2-8)Neu5Ac(a2-3)]Gal(b1-4)Glc
# Outline: as §1
# [17] = target: Neu5Ac(a2-8)Neu5Ac(a2-3)Gal(b1-4)Glc
# Outline: as §1
# [18] = target: Neu5Ac(a2-8)Neu5Ac(a2-3)[Gal(b1-3)GalNAc(b1-4)]Gal(b1-4)Glc
# Outline: as §1
# [19] = target: Neu5Ac(a2-8)Neu5Ac(a2-3)[GalNAc(b1-4)]Gal(b1-4)Glc
# Outline: as §1
# [20] = target: Neu5Ac(a2-8)Neu5Ac(a2-8)Neu5Ac
# Outline: as §1
# [21] = target: Neu5Ac(a2-8)Neu5Ac(a2-8)Neu5Ac(a2-3)Gal(b1-4)Glc
# Outline: as §1
# [22] = target: Neu5Ac(a2-8)Neu5Ac(a2-8)Neu5Ac(a2-3)[GalNAc(b1-4)]Gal(b1-4)Glc
# Outline: as §1
# [23] = target: Neu5Ac(a2-8)Neu5Ac(a2-8)Neu5Ac(a2-8)Neu5Ac(a2-3)[GalNAc(b1-4)]Gal(b1-4)Glc
# Outline: as §1
# [24] = target: Neu5Ac(b2-6)Gal(b1-4)GlcNAc
# Outline: as §1
# Neu5Ac(b2-6)GalNAc = target: Neu5Ac(b2-6)GalNAc
# Outline: as §1
# [25] = target: Neu5Ac9Ac(a2-3)Gal(b1-3)GlcNAc
# Outline: as §1
# [26] = target: Neu5Ac9Ac(a2-3)Gal(b1-4)GlcNAc
# Outline: as §1
# [27] = target: Neu5Ac9Ac(a2-6)Gal(b1-4)GlcNAc
# Outline: as §1
# [28] = target: Neu5Gc(a2-3)Gal(b1-3)GlcNAc
# Outline: as §1
# [29] = target: Neu5Gc(a2-3)Gal(b1-3)[Fuc(a1-4)]GlcNAc
# Outline: as §1
# Neu5Gc(a2-3)Gal(b1-4)Glc = target: Neu5Gc(a2-3)Gal(b1-4)Glc
# Outline: as §1
# [30] = target: Neu5Gc(a2-3)Gal(b1-4)GlcNAc
# Outline: as §1
# [31] = target: Neu5Gc(a2-3)Gal(b1-4)[Fuc(a1-3)]GlcNAc
# Outline: as §1
# [32] = target: Neu5Gc(a2-6)Gal(b1-4)GlcNAc
# Outline: as §1
# Neu5Gc(a2-6)GalNAc = target: Neu5Gc(a2-6)GalNAc
# Outline: as §1
# [33] = target: Neu5Gc(b2-6)Gal(b1-4)GlcNAc
# Outline: as §1
binder,measurement,setting,value
B1,glycan array binding signal (z-score),[1],-0.205
same,glycan array binding signal (z-score),[2],-0.037
same,glycan array binding signal (z-score),[3],-0.115
same,glycan array binding signal (z-score),[4],0.225
same,glycan array binding signal (z-score),[5],0.085
same,glycan array binding signal (z-score),[6],0.007
same,glycan array binding signal (z-score),[7],-0.184
same,glycan array binding signal (z-score),[8],-0.21
same,glycan array binding signal (z-score),[9],0.833
same,glycan array binding signal (z-score),[10],-0.327
same,glycan array binding signal (z-score),[11],0.34
same,glycan array binding signal (z-score),Neu5Ac(a2-6)GalNAc,-0.087
same,glycan array binding signal (z-score),[12],0.058
same,glycan array binding signal (z-score),[13],-0.062
same,glycan array binding signal (z-score),[14],0.335
same,glycan array binding signal (z-score),[15],0.035
same,glycan array binding signal (z-score),Neu5Ac(a2-8)Neu5Ac,0.254
same,glycan array binding signal (z-score),[16],-0.354
same,glycan array binding signal (z-score),[17],-0.083
same,glycan array binding signal (z-score),[18],-0.296
same,glycan array binding signal (z-score),[19],-0.073
same,glycan array binding signal (z-score),[20],-0.088
same,glycan array binding signal (z-score),[21],0.22
same,glycan array binding signal (z-score),[22],-0.089
same,glycan array binding signal (z-score),[23],0.144
same,glycan array binding signal (z-score),[24],-0.288
same,glycan array binding signal (z-score),Neu5Ac(b2-6)GalNAc,-0.272
same,glycan array binding signal (z-score),[25],0.222
same,glycan array binding signal (z-score),[26],-0.089
same,glycan array binding signal (z-score),[27],-0.091
same,glycan array binding signal (z-score),[28],-0.202
same,glycan array binding signal (z-score),[29],-0.188
same,glycan array binding signal (z-score),Neu5Gc(a2-3)Gal(b1-4)Glc,0.012
same,glycan array binding signal (z-score),[30],-0.279
same,glycan array binding signal (z-score),[31],0.45
same,glycan array binding signal (z-score),[32],-0.243
same,glycan array binding signal (z-score),Neu5Gc(a2-6)GalNAc,-0.279
same,glycan array binding signal (z-score),[33],-0.251
